According to PubChem BioAssay AID624417 (National Center for Advancing Translational Sciences (NCATS), 2012):
The whole screen tested about 410,000 compounds, of which about 6,400 (1.6%) were called active. This list was built around the results that the source calls inconclusive (neither active nor inactive); the mix of calls is not that of the screen. Calls follow the shape of the dose curve; as a rule, active = well fitted inhibition curve with a large enough effect; inconclusive = small, poorly fitted or top-dose-only effect; inactive = no such curve, though single readings can be large or run the other way. Potencies of inconclusive entries are left out as doubtful fits.
% is scaled to controls: 0 for no effect and ±100 for the full control effect; potency is read from the fitted curve at half-maximal effect; tags tell the direction and shape of the fitted curve.
Also: nearly all actives have a fitted effect of over 55% in size.

These molecules were tested against Glucagon-like peptide 1 receptor (Homo sapiens) (UniProt P43220) (assay: qHTS of GLP-1 Receptor Inverse Agonists (Inhibition Mode)). Settings: HEK293 GLP-1R CRE-luciferase, luminescence, 24 h, GLP-1R form is constitutively active; activity change, negative = inhibition: at 38.3 µM (top of the series) unless noted.
UniProt P43220, sequence (P43220 whole entry, looked up): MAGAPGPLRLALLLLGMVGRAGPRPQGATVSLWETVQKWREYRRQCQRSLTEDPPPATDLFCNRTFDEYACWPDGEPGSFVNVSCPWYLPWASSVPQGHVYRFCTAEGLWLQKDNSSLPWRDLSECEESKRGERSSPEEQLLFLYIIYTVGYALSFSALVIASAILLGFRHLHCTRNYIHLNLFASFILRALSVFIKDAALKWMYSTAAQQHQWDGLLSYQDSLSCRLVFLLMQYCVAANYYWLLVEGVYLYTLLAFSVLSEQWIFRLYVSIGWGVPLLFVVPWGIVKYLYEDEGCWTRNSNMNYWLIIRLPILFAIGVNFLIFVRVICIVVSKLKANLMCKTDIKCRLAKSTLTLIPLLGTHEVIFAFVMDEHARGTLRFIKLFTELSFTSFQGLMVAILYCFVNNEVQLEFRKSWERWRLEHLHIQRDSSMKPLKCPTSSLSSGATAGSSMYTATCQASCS
Summary of the method: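 Cells are plated, allowed 12 hours at 37 deg C, then treated with compounds for 24 hr before luciferase detection reagent is added and luminescence is read after 12 min at room temperature. The HEK293 line carries constitutively active GLP-1R with a cAMP-responsive reporter.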
For `Cc1ccc(N2CCN(C(=O)Nc3cccc([N+](=O)[O-])c3)CC2C)cc1` (centres undefined), the Potency was inconclusive [inhibitor, single point].
In the case of `Cc1nc2ccccc2n1CCc1nc2c3ccccc3nc(SCC(=O)NCc3ccco3)n2n1`, the Potency is reported as inconclusive [inhibitor, single point].
With `Cc1cc(C)cc(NS(=O)(=O)c2ccc3c(c2)NC(=O)C(C)S3)c1` (centres undefined) the “activity change, negative = inhibition” value was inactive: -19.8%.
For `CCOC(=O)c1cc2c(nc1NC(=S)NCc1ccccc1)CCCC2`, the “activity change, negative = inhibition” value was inactive: 33.3%.
With `Cc1cc(/C=N/NC(=O)Cn2c3ccccc3c(=O)c3ccccc32)c(C)n1-c1ccccc1` the Potency was inconclusive [inhibitor, partial curve, poor fit].
With `COc1ccc(C(=O)NC(=S)Nc2ccc(Cl)c(C(=O)O)c2)cc1` the “activity change, negative = inhibition” value was inactive: -7.65%.
For `CC(=O)Oc1cccc(NC(=O)c2cccc(C(=O)Nc3cccc(OC(C)=O)c3)c2)c1`, the Potency was inconclusive [inhibitor, single point].
`COc1cc2c(O)c3c(c(-c4ccc5c(c4)OCO5)c2cc1OC)C(=O)OC3` was tested, and the Potency was inconclusive [inhibitor, partial curve].
With `COc1ccc(NC(=O)c2cc(C3CCCCN3C(=O)CCc3ccccc3)on2)c(C)c1` (centres undefined) the Potency was inconclusive [inhibitor, partial curve, poor fit].
With `Cc1cc(C)c(C(=O)COC(=O)C2CC3CCCC(C2)C3=O)c(C)c1` (centres undefined) the Potency was inconclusive [inhibitor, partial curve, poor fit].
For `COc1ccc(OC)c(-n2c(-c3ccc(S(C)(=O)=O)cc3)cc(C=O)c2C)c1`, the “activity change, negative = inhibition” value was inactive: 12.6%.
In the case of `CCOC(=O)N1CCN(CC(O)COC2CC(C)CC(C)(C)C2)CC1` (centres undefined), the Potency is reported as inconclusive [inhibitor, partial curve].
In the case of `CCN(CC)CCNC(=O)c1ccc2c(c1)sc1nc(-c3ccc(F)cc3)cn12`, the Potency is reported as inconclusive [inhibitor, single point].
`CCCn1nc([N+](=O)[O-])c(C(C#N)c2nc3ccccc3o2)c(Cl)c1=O` (centres undefined) was tested, and the Potency was inconclusive [inhibitor, single point].
`CCCCCCCCCCOC(=O)Cn1c(COc2ccccc2OC)[n+](C)c2ccccc21` was tested, and the Potency was inconclusive [inhibitor, partial curve, poor fit].
`Cc1ccc(N(CC(=O)NC(C)(C)C)C(=O)CS(=O)CC(=O)Nc2ccc(F)cc2)cc1` (centres undefined) was tested, and the Potency was inconclusive [inhibitor, partial curve, poor fit].
With `O=C(Nc1ccnn1C1CCN(Cc2cccc(F)c2F)CC1)C1CCCC1` the Potency was inconclusive [inhibitor, partial curve, poor fit].
With `CCc1nc2c(c(SC)nn2-c2ccccc2)c(N)c1C(=O)OC` the “activity change, negative = inhibition” value was inactive: 31.7%.
In the case of `CCOc1ccc(CC(=O)NCCc2sc3nc(-c4ccc(OC)cc4)nn3c2C)cc1`, the “activity change, negative = inhibition” value is reported as inactive: 9.46%.
In the case of `O=C(NCC1CCCO1)c1cc2n(n1)C(C(F)(F)F)CC(c1ccc(Br)cc1)N2` (centres undefined), the Potency is reported as inconclusive [inhibitor, partial curve, poor fit].
`Cc1cc(C)cc(NC2=CC(c3cccc(F)c3)N(c3cc(C)cc(C)c3)C2=O)c1` (centres undefined) was tested, and the “activity change, negative = inhibition” value was inactive: 5.33%.
For `CCN1CCN(c2c(S(=O)(=O)c3ccc(C)c(C)c3)cnc3cc(OC)c(OC)cc23)CC1`, the Potency was inconclusive [inhibitor, single point].
For `Cc1ccc(NC(=O)c2sccc2-n2cccc2)c(Cl)c1`, the Potency was inconclusive [inhibitor, single point].
With `Cc1ccc(-c2cc(-c3ccccc3)[nH]c(=S)c2C#N)cc1` the “activity change, negative = inhibition” value was inactive: -2.3%.
In the case of `O=C(CSc1ncc(-c2ccc(F)cc2)n1Cc1ccco1)Nc1ccc2c(c1)OCO2`, the Potency is reported as inconclusive [inhibitor, single point].
With `COc1ccc(-c2cc(CNc3nc(NC(C)C)nc4cc(-c5ccccc5)sc34)on2)cc1` the Potency was inconclusive [inhibitor, single point].
`CCOc1cc(CNc2ccc(O)cc2)ccc1OCc1ccc(Cl)cc1` was tested, and the “activity change, negative = inhibition” value was inactive: 5.77%.
In the case of `CN(CC(=O)Nc1ccc(S(=O)(=O)N2CCCC2)cc1)Cc1ccc(Cl)c(Cl)c1`, the Potency is reported as inconclusive [inhibitor, single point].
For `O=C1NC2(CCCCCC2)C(=O)N1Cc1ccc(Br)cc1`, the Potency was inconclusive [inhibitor, partial curve, poor fit].
`COc1ccc(S(=O)(=O)NCC(c2ccco2)N2CCc3ccccc3C2)cc1` (centres undefined) was tested, and the Potency was inconclusive [inhibitor, partial curve, poor fit].
With `CCCc1[nH]c2ccc(C(=O)OC)cc2c1CCC` the Potency was inconclusive [inhibitor, partial curve, poor fit].
With `Cc1ccc(C(=O)Oc2cccc(NC(=O)c3cccs3)c2)cc1S(=O)(=O)N1CCOCC1` the Potency was inconclusive [inhibitor, single point].
For `Cn1cc(CN2CCN(c3ccc(Cl)cn3)CC2)c(-c2ccccc2F)n1`, the Potency was inconclusive [inhibitor, partial curve, poor fit].
With `COc1ccc2ccccc2c1/C=N/NC(=O)c1ccc([N+](=O)[O-])cc1` the “activity change, negative = inhibition” value was inactive: 0.362%.
With `O=C(c1cccc([N+](=O)[O-])c1)n1nc(-c2ccccc2)nc1NCc1ccccc1` the “activity change, negative = inhibition” value was inactive: 27.7%.
`Cc1cc(C(=O)NC2CCCc3c2cnn3-c2cccc(C)c2C)no1` (centres undefined) was tested, and the Potency was inconclusive [inhibitor, full curve, poor fit].
In the case of `Cc1cc(C)n2c(NCc3ccccc3)c(CC(C)C)nc2n1`, the “activity change, negative = inhibition” value is reported as inactive: 17.8%.
For `COc1ccc(N(CC(=O)Nc2ccccc2C)S(=O)(=O)c2ccccc2[N+](=O)[O-])c(OC)c1`, the Potency was inconclusive [inhibitor, single point].
For `CC1CC1C(=O)OCC(=O)Nc1ncc(Cl)cc1Cl` (centres undefined), the “activity change, negative = inhibition” value was inactive: 7%.
For `CC(C)CC1c2[nH]c3ccccc3c2CCN1C(=O)c1cnccn1` (centres undefined), the Potency was inconclusive [inhibitor, single point].
`COc1cc(Br)c(C2CC(=O)Nc3cc(OC)c(OC)c(OC)c32)cc1OC` (centres undefined) was tested, and the “activity change, negative = inhibition” value was inactive: -26.5%.
For `COc1ccc(S(=O)(=O)N2CCCC(C(=O)NCc3ccc4c(c3)OCO4)C2)cc1` (centres undefined), the Potency was inconclusive [inhibitor, single point].
In the case of `CC1CCc2c(sc(NC(=O)CCCOc3ccc(C(C)(C)C)cc3)c2C(N)=O)C1` (centres undefined), the “activity change, negative = inhibition” value is reported as inactive: 34.5%.
For `CCn1c(=O)n(CC)c2cc(N3CCCC3)c(NC(=O)c3cc(Br)ccc3OC)cc21`, the “activity change, negative = inhibition” value was inactive: -0.17%.
With `Cc1ccc(C)c(C(=O)CCC(=O)Nc2ccc(N3CCN(C)CC3)cc2C)c1` the Potency was inconclusive [inhibitor, full curve].
`CCCOc1ccc(C(=O)N/N=C/c2c[nH]c3ccc(Br)cc23)cc1` was tested, and the Potency was inconclusive [inhibitor, partial curve, poor fit].
In the case of `O=C(C1CCN(S(=O)(=O)c2ccccc2)CC1)N1CCN(c2ccccc2)CC1`, the “activity change, negative = inhibition” value is reported as inactive: -19.1%.
`Fc1ccccc1/C=C/c1ccc2ccccc2n1` was tested, and the Potency was inconclusive [inhibitor, partial curve, poor fit].
In the case of `O=C(NCc1ccc(C(F)(F)F)cc1)c1ccc(-c2ccc(F)c(F)c2)c2ccoc12`, the Potency is reported as inconclusive [inhibitor, partial curve, poor fit].
`CCc1cc(N2CCOCC2)cc2c1[nH]c1ccccc12` was tested, and the Potency was inconclusive [inhibitor, partial curve, poor fit].
In the case of `CCCCN(C)S(=O)(=O)c1cc(-c2nnc3c4ccccc4c(C)nn23)ccc1C`, the “activity change, negative = inhibition” value is reported as inactive: 39.9%.
For `COc1ccc(CCN(C)C(=O)/C=C/c2c(Cl)nc3ccccn23)cc1OC`, the “activity change, negative = inhibition” value was inactive: 129%.
`CCOc1ccc(-n2c(=O)c3c(C)c(C)sc3n(CC(=O)c3ccccc3)c2=O)cc1` was tested, and the Potency was inconclusive [inhibitor, full curve, poor fit].
`CCN1C(=O)[C@@H]2[C@@H](c3ccc(SC4CCCCC4)c(OC)c3)N3CCC[C@@]3(C(=O)OC)[C@@H]2C1=O` was tested, and the Potency was inconclusive [inhibitor, single point].
`Cn1c(=O)n(C)c2cc(NS(=O)(=O)c3ccc(Br)cc3)c(NCc3ccccc3)cc21` was tested, and the “activity change, negative = inhibition” value was inactive: 11.2%.
With `Nc1ccc(N=Nc2ccccc2)cc1[N+](=O)[O-]` the Potency was inconclusive [inhibitor, single point].
In the case of `NC(c1ccccc1)c1csc(NC(=O)Nc2cccc(C(F)(F)F)c2)n1` (centres undefined), the Potency is reported as inconclusive [inhibitor, single point].
In the case of `Cc1cc(C)c(S(=O)(=O)N2CCN(C(=O)CCn3nc(C)c(C)c3C)CC2)c(C)c1`, the Potency is reported as inconclusive [inhibitor, single point].
In the case of `O=C(c1ccccc1)N1CCN(c2cc(-c3ccccc3)nc3cc(-c4cccc(Cl)c4)nn23)CC1`, the “activity change, negative = inhibition” value is reported as inactive: 6.15%.
In the case of `COc1ccc(CNC(=O)[C@@H]2CCCN2C(=O)[C@@H]2Cc3ccccc3CN2C(=O)OC(C)(C)C)cc1`, the Potency is reported as inconclusive [inhibitor, single point].
For `Cc1nc(N2CCN(Cc3ccc4c(c3)OCO4)CC2)c2oc3ccccc3c2n1`, the Potency was inconclusive [inhibitor, partial curve, poor fit].
`COc1ccc2[nH]c(C)c(CCNC(=S)Nc3cccc(C)c3C)c2c1` was tested, and the Potency was inconclusive [inhibitor, partial curve, poor fit].
With `O=C1NC[C@H](CCCCN2C[C@H](Cc3ccc(O)cc3)N(CC3CCCCC3)C(=O)C2=O)N(Cc2ccccc2)C1=O` the “activity change, negative = inhibition” value was inactive: 18.6%.
With `OC(CNCCc1ccc(Cl)cc1)COCc1ccco1` (centres undefined) the Potency was inconclusive [inhibitor, partial curve, poor fit].
